Results from PubChem BioAssay AID624171 (National Center for Advancing Translational Sciences (NCATS), 2012).
Hit rate of the full screen: of about 410,000 compounds, about 1,200 (0.29%) were called active. The shares of active, inactive and inconclusive entries below differ from those in the screen. Calls follow the shape of the dose curve; as a rule, active = well fitted activation curve with a large enough effect; inconclusive = small, poorly fitted or top-dose-only effect; inactive = flat fitted curve, though single readings scatter. Potencies beside an inconclusive call are fits to weak or partial responses and may not hold up.

Experiment: qHTS of Nrf2 Activators; also: nearly all actives have a fitted effect of over 65% in size; as to activation: % of control where 0% means no effect
Conditions: AREc32 ARE-luciferase reporter (MCF7-derived line), luminescence, 24 h; activation: at 46.1 µM (top of the series)
In short: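 Nrf2 activation is followed as ARE-luciferase induction in the AREc32 line after one day of compound treatment; luminescence is read with Steady-Glo.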
Potency is read from the fitted curve at half-maximal effect; tags tell the direction and shape of the fitted curve.

Compound	Potency	activation
COc1cc(NS(=O)(=O)c2ccc(N/C=C(\C#N)c3nc4ccccc4o3)cc2)nc(OC)n1	inconclusive: 35.5 µM [activator, partial curve, poor fit]	–
O=C(O)CCc1ccc(-c2ccc(Br)cc2)o1	inconclusive: 22.4 µM [activator, single point]	–
c1ccc(Cc2c(-c3ccco3)nc3c4ccccc4ccn23)cc1	active: 6.31 µM	–
O=C(CCN1C(=O)c2cccc3cccc(c23)C1=O)Nc1ccon1	inconclusive: 5.01 µM [activator, full curve, poor fit]	–
COc1ccc(NC(=O)CCNC(=O)c2ccc([N+](=O)[O-])cc2)cc1S(=O)(=O)N1CCCCC1	–	inactive: -0.367%
O=C(O)c1ccc2oc(SCC(=O)N3CCCCC3)nc2c1	–	inactive: 0.0634%
COC(=O)c1ccc(NCc2cc(O)ccc2O)cc1O	inconclusive: 17.8 µM [activator, single point]	–
CC(=O)N1CCN(S(=O)(=O)c2c(F)cc(F)c(Cl)c2F)CC1	active: 11.2 µM	–
O=C(/C=C/c1ccco1)Nc1nnc(-c2ccco2)s1	inconclusive: 3.55 µM [activator, partial curve, poor fit]	–
O=C(Nc1ccc(Cl)c([N+](=O)[O-])c1)c1ccco1	inconclusive: 12.6 µM [activator, partial curve, poor fit]	–
CC(=O)Nc1ccc(-c2ccnc3c2CC(C)(C(=O)NCc2ccc(N(C)C)cc2)O3)cc1 (centres undefined)	–	inactive: 2.34%
O=c1[nH]c(O)c(/C=C2\C=Nc3ccccc32)[nH]1	active: 3.98 µM	–
C(=N\Nc1nc(-c2ccccc2)cs1)/c1ccco1	inconclusive: 3.16 µM [activator, single point]	–
O=C1/C(=C/c2cccs2)NC(=S)N1C1CC1	inconclusive: 11.2 µM [activator, partial curve, poor fit]	–
O=C(/C=C/c1ccccc1)COC(=O)c1ccccc1	–	inactive: 25.2%
CCCN1C(=O)/C(=C/c2ccco2)SC1=Nc1ccc(OC)cc1	inconclusive: 15.8 µM [activator, partial curve, poor fit]	–
CC(NC(=O)CN(c1cccc(C(F)(F)F)c1)S(=O)(=O)c1ccc(Cl)c([N+](=O)[O-])c1)c1ccccc1 (centres undefined)	inconclusive: 10 µM [activator, partial curve, poor fit]	–
O=C1c2ccccc2-c2nc3ccccc3cc21	inconclusive: 2.82 µM [activator, full curve, poor fit]	–
Cc1ccc(S(=O)(=O)c2nc(S(C)(=O)=O)sc2N2CCCC2)cc1	–	inactive: 0.0487%
